The RNAGym collection of RNA variant scans (doi:10.1093/nar/gkz1192)
The source gives no read counts; variants with many changes may rest on few reads.

B1: CPEB3 Ribozyme (parent)
chain: UAACAGGGGGCCACAGCAGAAGCGUUCACGUCGCAGCCCCUGUCAGAUUCUGGUGAAUCUGCGAAUUCUGCUGUAUAUCUC

Variants of: B1
Experiment: self-cleavage, relative activity (ratio to wild type); higher = more cleavage; in vitro, sequencing
Outline: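 Relative activity was defined as the cleaved/total read fraction for a variant divided by the same fraction for the unmutated ribozyme. CPEB3 self-cleaving ribozyme libraries were made by rounds of error-prone PCR, barcoded, and transcribed in vitro with T7 RNA polymerase for 5 hours at 37°C, and cleavage ran through transcription plus a 15 min DNase I step before EDTA. Illumina sequencing of template-switched reverse transcripts gave the reads, and DNA sequencing mapped the barcodes. Averages come from three batches, using variants with at least 5 reads.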
In the case of UAACAGGGGGCCACAGCAGAAGCGUUCACGUCGCGGCCCCAGUCUGAUUCUGGUGAAUCUGCGAAUUCCGCUGUAUAUCUC [A35G U41A A45U U69C], the self-cleavage is reported as 0.19.
Work on UAACAGGGGGCCACAGCAGAAGCGUUCACGUCGCGGCCCCUGUAAGAUUCUGGUGAAUCUGCGAAUUCUGCCGUAUAUCUC [A35G C44A U72C] yielded a self-cleavage of 1.15.
In the case of UAACAGGGGGCCACAGCAGAAGCGUUCACGUCGCGGCCCCAGUCAGAUACUGGUGAAUCUGCGAAUUCUGCUGUAUAUCUC [A35G U41A U49A], the self-cleavage is reported as 0.19.
With UAACAGGGGGCCACAGCAGAAGCGUUCACGUCGCGGCCCCAGUCAGAUUCUGGUGAAUCAGCGAGUUCUGCUGUAUAUCUC [A35G U41A U60A A65G] the self-cleavage was 0.19.
For UAACAGGGGGCCACAGCAGAAGCGUUCACGUCGCGGCCCCUGUCAGAUUCUGGUGAAUCUGCGAAUUCUGCUGUGUAUCCC [A35G A75G U80C], the self-cleavage was 1.39.
Variant UAACAGGGGGCCACAGCAGAAGCGUUCACGUCGCGGCCACUGUCAGAUUCUGGUGAAUCUGCGAAUUCUGCCGUAUAUCAC [A35G C39A U72C U80A] has a self-cleavage of 1.02.
UAACAGGGGGCCACAGCAGAAGCGUUCACGUCGCGGCCCCUGUCAGAUUCUGGUGAAUCUCCGGAUUCUGCUGUAUUUCUC [A35G G61C A64G A77U] showed a self-cleavage of 0.7.
Work on UAACAGGGGGCCACAGCAGAAGCGUUCACGUCGCGGCCCCUGUCAGAUUCUGGUGAAUCUGAAAAUUCUGCUGUAUAUCUC [A35G C62A G63A] yielded a self-cleavage of 0.16.
In the case of UAACAGGGGGCCACAGCAGAAGCGUUCACGUCGCGGCCCCCGUCAGUUUCUGGUGAAUCAGCGAAUUCUGCUGUAUAUCUC [A35G U41C A47U U60A], the self-cleavage is reported as 0.14.
UAACAGGGGGCCACAGCAGAAGCGUUCACGUCGCGGCCCCAGUCUGAUUCUGGUGAAUCUGCGAAUUCUGCCGUAUAUCUC [A35G U41A A45U U72C] gave a self-cleavage of 0.11.
UAACAGGGGGCCACAGCAGAAGCGUUCACGUCGCGGCCCCUGUCAGAUUCUGGUGAAUAUGCGAAUUCCGCUGUAUAUCUC [A35G C59A U69C] gave a self-cleavage of 0.62.
Work on UAACAGGGGGCCACAGCAGAAGCGUUCACGUCGCGGCCACUGUCGGAUUCUGGUGAAUCGGCGAAUUCUGCUGUAUAUCUC [A35G C39A A45G U60G] yielded a self-cleavage of 0.28.
Work on UAACAGGGGGCCACAGCAGAAGCGUUCACGUCGCGGCCCCUGUCAGAUUCUGAUGAGUCUGCGAAUUCUGCUGUAUAUCUC [A35G G53A A57G] yielded a self-cleavage of 1.2.
UAACAGGGGGCCACAGCAGAAGCGUUCACGUCGCGGCCCCUGUAAGAUUCUGGUGUAUCUGCGAAUUCUGCUGUAUAUCUC [A35G C44A A56U] gave a self-cleavage of 0.67.
Work on UAACAGGGGGCCACAGCAGAAGCGUUCACGUCGCGGCCCUUGUCAGAUUCUGGUGAUUCUGCGGAUUCUGCUGUAUGUCUC [A35G C40U A57U A64G A77G] yielded a self-cleavage of 1.12.
Work on UAACAGGGGGCCACAGCAGAAGCGUUCACGUCGCGGCCCAUAUCAGAUUCUGGUGAAUCUGCGAAUUCUGCAGUAUAUCUC [A35G C40A G42A U72A] yielded a self-cleavage of 0.
Work on UAACAGGGGGCCACAGCAGAAGCGUUCACGUCGCGGCCCCUGUCAGAUUCUGGUGAAUCUGCGGAUUCUGCUGUAUACCUC [A35G A64G U78C] yielded a self-cleavage of 1.24.
With UAACAGGGGGCCACAGCAGAAGCGUUCACGUCGCGGACCCUGUCAGAUUCUGGUGAAUCUGCGAAUUCUGCUGUAUGUCUC [A35G C37A A77G] the self-cleavage was 0.55.
For UAACAGGGGGCCACAGCAGAAGCGUUCACGUCGCGGCCCCUGUCAAAUUCUGGUGAAUCUGCGAAUUCUGCCGUAUAUCUC [A35G G46A U72C], the self-cleavage was 0.55.
UAACAGGGGGCCACAGCAGAAGCGUUCACGUCGCGGCCCCUGUCAUAUUCUGGUGAAUCUGCAAAUUCUGCUGUAAAUCUC [A35G G46U G63A U76A] gave a self-cleavage of 0.88.
Work on UAACAGGGGGCCACAGCAGAAGCGUUCACGUCGCGGCCCUUGUCAGAUUCCGGUGAAUCUGCGAAUUCUGCUGUGUAUCUC [A35G C40U U51C A75G] yielded a self-cleavage of 1.25.
With UAACAGGGGGCCACAGCAGAAGCGUUCACGUCGCGACCCCUGUCAGAUUCUGGUGUACCUGUGAAUUCUGCUGUAUAUCUC [A35G G36A A56U U58C C62U] the self-cleavage was 0.15.
UAACAGGGGGCCACAGCAGAAGCGUUCACGUCGCGGCGCCUGUCAGAUUCUGGUGAAUCUGCGAAUUCCGCCGUAUAUCUC [A35G C38G U69C U72C] gave a self-cleavage of 0.1.
UAACAGGGGGCCACAGCAGAAGCGUUCACGUCGCGGGCCCAGUCAGAUUCUGGUGAAUCUGCGAAUUCUGCUGUAAACCUC [A35G C37G U41A U76A U78C] showed a self-cleavage of 0.29.
With UAACAGGGGGCCACAGCAGAAGCGUUCACGUCGCGGCACCUGUCAGAUACCGGUGAAUCUGCGAAAUCUGCUGUAUAUCUC [A35G C38A U49A U51C U66A] the self-cleavage was 0.25.
For UAACAGGGGGCCACAGCAGAAGCGUUCACGUCGCGGCCCCCGUCAGAUUCUGGUGGGUCUGCGAAUUCUGCUGUAUAUCUC [A35G U41C A56G A57G], the self-cleavage was 1.2.
UAACAGGGGGCCACAGCAGAAGCGUUCACGUCGCGGCCCCAGUCAGAUUCUGGUGAAUCCGCGAAUUCUGCUGUAUAUCUC [A35G U41A U60C] showed a self-cleavage of 0.15.
UAACAGGGGGCCACAGCAGAAGCGUUCACGUCGCGGCCCUUGUCAGACUCUGGCGAAUCUGCGAAUUCUGCGGUAUAUCCC [A35G C40U U48C U54C U72G U80C] gave a self-cleavage of 1.18.
With UAACAGGGGGCCACAGCAGAAGCGUUCACGUCGCGGCCCCUGUCAGAUUCUCGUGAAUCUGCGAAUUCUGCUGAAUAUCUC [A35G G52C U74A] the self-cleavage was 1.29.
For UAACAGGGGGCCACAGCAGAAGCGUUCACGUCGCGGCCCCAGUCAGAUUCUGGUGGAUCUGCGAAUUCUGCUGUAUAACUC [A35G U41A A56G U78A], the self-cleavage was 0.34.
In the case of UAACAGGGGGCCACAGCAGAAGCGUUCACGUCGCGGCCCCUGUCAGAUUAUGGUGAAUCUGCGAAUUCUGCUGAAUAUCUC [A35G C50A U74A], the self-cleavage is reported as 1.28.
In the case of UAACAGGGGGCCACAGCAGAAGCGUUCACGUCGCGGCCCGUGUCAGAUUCUGGUGAAUCUGCGAAUACUGCUGUAUAUCUC [A35G C40G U67A], the self-cleavage is reported as 0.21.
UAACAGGGGGCCACAGCAGAAGCGUUCACGUCGCGGCCCCUGUCAGAUUCUGGUGAAUCUGCGAGUACUGCUGUGUAUCUC [A35G A65G U67A A75G] showed a self-cleavage of 0.48.
For UAACAGGGGGCCACAGCAGAAGCGUUCACGUCGCGGCCCCAGUCAGAUUCUGGUGAAUCCGCGAAUUCUGCUGUAUAACUC [A35G U41A U60C U78A], the self-cleavage was 0.12.
